Source: the supplement of paper PMC11417369
Some of the results follow.

These sequences were tested on PfSIP2 AP2 domain 1 (GST-tagged) (assay: gcPBM binding intensity (ln(normalized median fluorescence intensity)); higher = stronger DNA binding).
How it was run: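 After 1 h on an Agilent 4 × 180k array of primer-extended double-stranded 36-bp intergenic genomic probes and negative controls, bound GST-tagged P. falciparum DNA-binding domains were detected with Alexa488 anti-GST antibody and scanned at 488 nm. The domains had been expressed in E. coli, and binding took place in 1× PBS with 1% milk, 0.2 mg/ml BSA, 0.5% salmon testes DNA and 0.03% Triton X-100. Binding intensity is the highest Masliner-normalised natural-log median intensity across replicate spots of either probe orientation.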

Sequence | gcPBM binding intensity (ln)
ATATATATTTATAATCGTACGTACCTAACAATACAA [XGTACX_site4510] | 7.33
AAATAAAAAAAAGCCTGTACATGTTCATAAATTTTT [XGTACX_site7925] | 6.81
GAATATTAAATATTATCACACACATAATTATTTCCA [CACACA_site8730] | 7.03
TTCTATTTATATGTGGGTACTAATTTTTTTTCTTTT [XGTACX_site7104] | 6.99
CTTAAATTAATTTGGGTGCATATATTTGTACACATT [GTGCAC_site9948] | 10.9
TTAATTTTTTTTTAAACACACATTTTTTTATTTAAG [CACACA_site2738] | 6.73
TGAATAAAATATTATACACACATATGTATATAACAT [CACACA_site974] | 6.85
TATTAATTTTTTTTTTTTTTTTTTTTTTTTTTTTTT [CACACA_negctrl_site1329] | 8.76
GTTATAAATAATAAATAAATAATCAAATGAAGAATG [CACACA_negctrl_site653] | 7.17
AGGAGGATAGTTCACAGTACCCAGGAAATCTGCGGA [XGTACX_site4928] | 6.61
TATGCAATAAAATATACACACAATATACTTATATAT [CACACA_site7691] | 6.99
ATAAATATACCAATCGGTACACATTTATACAAACAA [XGTACX_site7484] | 6.98
AATAAATACACATACACACACGACGCTAGTATATGT [CACACA_site6627] | 6.83
AGAATAAATATGTGGTGTTATAGTATTAATGTTAAT [TGCATGCA_negctrl_site62] | 7
GCTATAAATATAATCACACATAAATATATAATATAT [CACACA_site5144] | 7.13
AGAAAAAAATAATCATCACACACGGAGAATGTCCAA [CACACA_site2314] | 6.59
GAAAATAACTAAAATTGTACAAAGAAACATATATTT [XGTACX_site6484] | 6.83
TATATATATCTGTATACACACATACAAATATGTAAA [CACACA_site5950] | 7.16
GATATTCATTATATATGTACATATATGTAATATATA [XGTACX_site2210] | 7.05
TATTAAAGCACCCATGCACACACACTAAGGAAAAGA [CACACA_site7961] | 9.28
ATATATTTTTTTTTTTCACACATTAGGATTCATATA [CACACA_site5758] | 7.12
TAATAATATATAAAAAGTACATAACAAGATATGAAA [XGTACX_site4921] | 7.19
ATCATATGTATGGTGGTGCATTATGCATGAATTTTA [GTGCAC_site9798] | 10.2

Sequence | gcPBM binding intensity (ln)
TATATAAACCCACCTACACACACAACGTAAATGCAT [CACACA_site8702] | 7.1
ATTATTATATTCAAATGTACTTAATAAACATTTTAA [XGTACX_site3023] | 6.99
TTTATCTAAATATGTGTGCACTCGTTAATTTTTTTT | 10.5
TGTTGATTTATCCTGTGTACGGATATATATCTTTCA [XGTACX_site7826] | 6.88
TAAAGAATATTATAAACACACACTTTATAAAGAATT [CACACA_site114] | 6.67
GTAATTATACATATTACACACTCTCTTGATCTTTTT [CACACA_site7756] | 6.88
TATATAAAGAAACACACACACACCTTATAATTATTA [CACACA_site4062] | 7.27
AAAAAAAAAACACGCGCACACACACCCACCCACCCA [CACACA_site8689] | 7.81
ACTAATAAAGGTGTAATACACACTATAAAAAGGAAT [CACACA_site1124] | 7.09
TTTTTTCTTTATTATGGTACGTATAAAAAAATTATA [XGTACX_site3433] | 7.18
GAGAGGTATCAAAAATGTACACATATATATATGTAT [XGTACX_site5611] | 7.04
ATATATAATATATATTGTACAGGTATGTCTATAAAT [XGTACX_site2243] | 7.14
TATAAAATTTTTAAAAGTACATATTTTACATAATAC [XGTACX_site2193] | 7.07
ATTATTCCATATTATTGTACTTTAATTTTTTAAACC [XGTACX_site2960] | 7.15
TTTTTATCAACAAATAATACCATAACTCATATTTAT [CACACA_negctrl_site740] | 6.88
AAAATGTTATTGGAAAGTACAAAAAAAATTATATAA [XGTACX_site4074] | 6.83
TTAATATATATATATATATATATATTTTTATTTTTT [CACACA_negctrl_site763] | 7.57
ATAAAACGTACAATGGTGCATATAAATAATATATAT [GTGCAC_site9960] | 10.8
CATATATAGATATATACACACATATATAAATAAATA [CACACA_site6759] | 6.93
TATGTATATTCTTTCAGTACACATAATGTTGTCATA [XGTACX_site8845] | 7.12
TAAATATATTTATACACACACACCAAAGCAATAGAT [CACACA_site7393] | 7.33
GGATTCAAAAAAAAAAATAAAAGTAAATAATAAATA [TGCATGCA_negctrl_site348] | 6.92
TTCAATATACATATGTGTACTAAAATAAATAGAAAA [XGTACX_site5708] | 7.21

Sequence | gcPBM binding intensity (ln)
ATTACAACATTTTATACACACGTGATTATTAATTTT [CACACA_site5581] | 7.21
TATATTTCAGGGGGGAGTACAAATTTTTTTATATAA [XGTACX_site1600] | 9.68
TTTATGAAGTAAAAATATAAATTCACAAAGTTAAAA [CACACA_negctrl_site1476] | 6.71
AAGAACAGAACGTACACACACATATTTATATTTATA [CACACA_site7594] | 7.08
ATTTGTAATATTAAATGTACAGGTAAGAAATATCAG [XGTACX_site1562] | 7.49
TAAGGAAAAAAAATATGTACTTATAGTTCCTTCTTT [XGTACX_site2202] | 6.8
CATTATGTACAAAAAGTGCAATATATATTAACACTG | 8.23
TTATATATATATATATATATATATATATATATAAAT [GTGCAC_negctrl_site126] | 8.38
AACAAAATAAGAAAACGTACAAATGTTTCAAATTCT [XGTACX_site1544] | 6.83
TTTTCAAAGATATATACACACATGCATATTACGGTG [CACACA_site6505] | 7.01
TTTTTGAGTGCACATACACACAGACATACATTTAAA [CACACA_site5813] | 11.5
TTAATAAATATCAATACACACACACTAATGTGAATA [CACACA_site9254] | 6.86
TGTATGAAATATATTACACACATATATAATATATAT [CACACA_site793] | 7.27
GTGTAAATAAGGATATATAACAATCAACAAAACATA [CACACA_negctrl_site1759] | 7.07
ATATTTTTCAAACATCGTACATTATGAGTTAAAATT [XGTACX_site584] | 7.02
ATACACAAAATTATTAAATCAATAAATATATGGTTT [CACACA_negctrl_site353] | 6.77
TTATAAATGAATAAATGTACAAAATATATATATATA [XGTACX_site8829] | 9.08
CATAACATAAAATAGGTGCACAAAAATTGTAATTGA | 11.2
CACACCCACCAACACACACACACACCCACCCATATA [CACACA_site366] | 7.11
TTGTAATATATGTATTGTACGCATATAACAATTATT [XGTACX_site3652] | 6.99
TTCAGTGTATACATATGTACATATATATATATATAT [XGTACX_site1621] | 9.44
ATTTTTATTTGTTACGCATGCATAAAAGTGCATACT [TGCATGCA_site547] | 8.56
AAAATACATAAATGTTCACACATTAAAAAGCAGAAG [CACACA_site5346] | 7.13

Sequence | gcPBM binding intensity (ln)
TTTATAAAGAAACACACACACATGTGAACATAAAAA [CACACA_site1908] | 6.93
TATGTCAGATGAAAGGGTACATAATATAATATATTT [XGTACX_site8062] | 6.97
TTTTTATTACATAATTAAAAAAAATAATAAAATAAA [XGTACX_negctrl_site249] | 6.8
TTTTTTTTTTAATTCGCACACTGTCTTCATACAATT [CACACA_site1379] | 7.14
ATATATATATATTTATGTACTTAATAATTTATTCAC [XGTACX_site7301] | 9.08
TGCAGTCTGGAGAAAAGTACATAGTATCTGGTAACC [XGTACX_site2019] | 6.78
ATATCATTAAAAGGATGTACATATGTGTATACAATA [XGTACX_site871] | 7.06
TAATATCTAAAAAATATATTTTTTATTTTTTATTAA [CACACA_negctrl_site510] | 6.8
TACATACATACATACACACACACATATATATACATA [CACACA_site853] | 8.01
AATTTAAAATAATATTGTACTTAGATATAAATATGA [XGTACX_site4198] | 6.82
TAAAAAATATAAACTGCACACACAAAAAAAAAAGAG [CACACA_site8379] | 8.49
ATGGTACACAAATATACATGCAATAATAAAAAAAAA [TGCATGCA_site879] | 7.23
CATTAATATATATATACATGCACGTTTTAAAAAAAA [TGCATGCA_site875] | 8.15
ATGGGAATATAATTATGTACATATAAAAATTATAAA [XGTACX_site5336] | 6.97
TAATTATGCAGACACACACACACACGCAACTAAAAA [CACACA_site7253] | 7.37
TCATTTCACGGACACACACACACAATATATTTCCTT [CACACA_site6023] | 7.37
AAAAAATATTTTTACAGTACATATATATAAAATGTT [XGTACX_site3215] | 6.96
TAACAAAGGAAAGATATACACACGTATGCATGATAA [CACACA_site2520] | 6.9
TAAATAAGGAAGGAAACACACATTAAAAAATAAATA [CACACA_site618] | 6.74
TTTTTAAATTATTTGAAAAAAAGAAAATTATAAACA [CACACA_negctrl_site1599] | 7.12
